In PubChem BioAssay AID488969 (Vanderbilt High Throughput Screening Facility, 2010):
Whole data set: some 110,000 compounds, median “z-score” near -0.1, cut for the highest 2% near 2. Some of the results follow.

The molecules below were run against Metabotropic glutamate receptor 8 (Rattus norvegicus) (UniProt P70579) (assay: mGluR8 Gi/Go-coupled signaling modulation – cell-based, rat, thallium flux, HTS, primary screen (AID 488969)). Conditions: HEK293 rat mGluR8, GIRK (G protein-gated inwardly rectifying potassium channel) thallium flux, FluoZin2; at 10 µM; stronger effect = higher value; submaximal glutamate (EC20) added with thallium.
UniProt P70579, sequence (P70579 whole entry, looked up): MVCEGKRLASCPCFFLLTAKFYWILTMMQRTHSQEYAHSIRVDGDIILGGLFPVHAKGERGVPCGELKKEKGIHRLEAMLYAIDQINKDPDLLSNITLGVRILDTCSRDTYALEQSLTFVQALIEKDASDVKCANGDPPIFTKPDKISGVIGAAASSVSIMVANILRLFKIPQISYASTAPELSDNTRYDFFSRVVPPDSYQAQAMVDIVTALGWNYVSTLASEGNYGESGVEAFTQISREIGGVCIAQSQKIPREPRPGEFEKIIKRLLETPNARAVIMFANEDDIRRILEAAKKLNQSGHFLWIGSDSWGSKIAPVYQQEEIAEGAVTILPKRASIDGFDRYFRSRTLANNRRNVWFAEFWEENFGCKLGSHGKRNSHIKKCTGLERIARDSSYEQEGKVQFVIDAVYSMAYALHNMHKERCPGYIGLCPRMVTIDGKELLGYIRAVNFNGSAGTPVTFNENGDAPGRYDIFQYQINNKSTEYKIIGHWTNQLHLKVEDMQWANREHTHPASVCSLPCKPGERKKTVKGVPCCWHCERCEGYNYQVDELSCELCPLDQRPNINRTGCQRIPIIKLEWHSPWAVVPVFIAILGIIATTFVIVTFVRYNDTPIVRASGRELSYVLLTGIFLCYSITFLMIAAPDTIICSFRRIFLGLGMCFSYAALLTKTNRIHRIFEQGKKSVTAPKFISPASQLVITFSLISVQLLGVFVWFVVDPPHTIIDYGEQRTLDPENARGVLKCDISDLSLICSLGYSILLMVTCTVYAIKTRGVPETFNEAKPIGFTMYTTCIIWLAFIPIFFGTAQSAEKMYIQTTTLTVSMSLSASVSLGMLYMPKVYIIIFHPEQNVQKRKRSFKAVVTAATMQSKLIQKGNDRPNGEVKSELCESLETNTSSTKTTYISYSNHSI

| SMILES | z-score |
| --- | --- |
| Cc1ccc(C)c(NS(=O)(=O)c2ccc(NC(=O)CSc3ccc(Cl)cc3)cc2)c1 | -1.42 |
| O=C1c2ccccc2C(=O)N1CNc1ccccc1 | 0.141 |
| CC1(C)C2(C#N)C(N)=NC3(OCCO3)C12C#N (stereo not drawn) | -0.373 |
| CCN1CCN(CCC(=O)Nc2ccc3c(c2)OCO3)CC1 | 0.949 |
| CCCCOc1ccc(C2CC(=O)N(C)C2=O)cc1 (stereo not drawn) | -0.376 |
| CCOC(=O)c1c(C)[nH]c(C(=O)N/N=C\c2ccccc2O)c1C | 0.156 |
| O=C1CC(N2CCCN(C3CC(=O)N(c4ccc(F)cc4)C3=O)CC2)C(=O)N1c1ccc(F)cc1 (stereo not drawn) | -0.249 |
| O=S1(=O)C=CC(Nc2ccccc2)C1 (stereo not drawn) | 0.992 |
| COc1cc(C)ccc1OCCOc1c(C)cc(Cl)cc1Cl | -0.134 |
| Nc1c(S(=O)(=O)c2cccs2)c2nc3ccccc3nc2n1Cc1ccc2c(c1)OCO2 | -0.174 |
| CCOc1nc(Nc2ccc(OC)c(Cl)c2)nc(N2CCN(c3ccc(OC)cc3)CC2)n1 | -0.0456 |
| COC(=O)c1ccc(COC(=O)c2ccccc2OC)cc1 | -0.184 |
| Cc1cc(=O)[nH]c(-n2[nH]c(C)cc2=O)n1 | 0.322 |
| Cc1ccc(NC(=O)CCn2c(=O)oc3ccccc32)c(C)c1 | 0.00309 |
| Cc1ccnc(SCC(=O)c2ccc([N+](=O)[O-])cc2)n1 | -0.0334 |
| C/C(=N\OCC(=O)N/N=C/c1ccc(C)cc1O)c1cccs1 | 0.606 |
| O=C(CSc1nccn1Cc1ccccc1)NCc1ccccc1 | -0.325 |
| CC(=O)c1ccc(NS(=O)(=O)c2ccccc2)cc1 | -0.174 |
| CN1C(=O)c2ccc(NC(=O)C3CCCCC3)cc2C1=O | -0.446 |
| O=C1C2CCCN2C(c2ccc(Br)cc2)N1c1ccc(F)cc1 (stereo not drawn) | -0.348 |
| N#Cc1ccc(N2Cc3ccccc3/C2=N/C(=O)Nc2ccc(Cl)cc2)cc1 | -0.0564 |
| O=C1Cc2ccccc2C(c2ccc(Br)cc2)N1 (stereo not drawn) | -0.142 |
| COc1ccc(-n2nnnc2SCc2nc(N)nc(N3CCOCC3)n2)cc1 | -0.0167 |

| SMILES | z-score |
| --- | --- |
| S=c1[nH]nc(-c2ccc3ccccc3n2)n1-c1ccc2ncccc2c1 | -0.148 |
| COC(=O)Nc1sc(C)nc1-c1ccccc1 | 0.156 |
| CC(=O)N1CCc2cc(S(=O)(=O)N3CCc4ccccc4C3)ccc21 | -0.722 |
| Cc1cccc(-n2cc[nH]c2=S)c1C | 0.000959 |
| CCOC(=O)c1cccc(NC(=O)CCn2cccc2)c1 | -0.42 |
| COc1cccc(N2CCN(C3CC(=O)N(c4ccc(Cl)c(Cl)c4)C3=O)CC2)c1 (stereo not drawn) | -0.256 |
| Cc1ccc(NC2CC(=O)N(c3ccc(C)cc3)C2=O)cc1 (stereo not drawn) | -0.219 |
| COCCNC(=O)C1(C)Oc2ccccc2NC1=O (stereo not drawn) | -0.0416 |
| Cc1ccc(C(=O)C2=C(O)C(=O)N(c3ncccn3)C2c2ccc(Cl)cc2)o1 (stereo not drawn) | -2.11 |
| CCOC(=O)N1CCN(CC(=O)Nc2ccc(Oc3ccccc3)cc2)CC1 | -0.329 |
| Cc1ccc(N2C(=O)N(CC(=O)c3cc(C)ccc3C)C(=O)C2C)cc1 (stereo not drawn) | -0.366 |
| O=C(O)CCc1nc(-c2ccc(Cl)cc2)no1 | -0.537 |
| CN=C(c1ccco1)n1c(=S)nc(-c2ccco2)n(C)c1=S | -0.741 |
| CCN(CC(=O)NC1CCS(=O)(=O)C1)S(=O)(=O)c1ccc(C)c(C)c1 (stereo not drawn) | 0.324 |
| Cc1cc(C)n(-c2nc(SCCN(C)C)c3c4c(sc3n2)CCCC4)n1 | 0.869 |
| COc1ccc2nc(NC(=O)C3CCCN(S(=O)(=O)c4cccc5nsnc45)C3)sc2c1 (stereo not drawn) | -0.156 |
| CC1=NN(c2ccccc2)C(=O)C1(C)[N+](=O)[O-] (stereo not drawn) | -0.504 |
| COc1ccccc1C(=O)Nc1nnn(C)n1 | -0.546 |
| COC(=O)C1C(=O)c2c(n[nH]c2C)CC1(C)C (stereo not drawn) | -0.0844 |
| O=S(=O)(c1ccc(NC(=S)NCCc2ccccc2)cc1)N1CCOCC1 | -0.502 |
| O=C(NCCNc1ccc([N+](=O)[O-])cc1C(F)(F)F)c1cccc(F)c1 | -0.7 |
| Cc1nc2sccn2c(=O)c1Cl | 0.324 |
| Cc1onc(-c2c(F)cccc2Cl)c1C(=O)NCCc1ccc(S(N)(=O)=O)cc1 | 0.0213 |

| SMILES | z-score |
| --- | --- |
| O=C(COC(=O)c1ccccc1OCc1ccccc1Cl)NC1CC1 | -0.211 |
| COCCCN(C(=O)Nc1cccc(Cl)c1)C(C)c1ccccn1 (stereo not drawn) | -0.414 |
| Cc1ccc(CNC(=O)c2ccccc2N)cc1 | 0.0428 |
| O=C(CN1C(=O)C2C3C=CC(C3)C2C1=O)NCc1ccc2c(c1)OCO2 (stereo not drawn) | -0.188 |
| O=C1CC(Nc2ccc(N3CCOCC3)cc2)C(=O)N1c1ccccc1F (stereo not drawn) | -0.0538 |
| Cc1cc(C)c2[nH]c(=O)c(=O)[nH]c2c1 | -0.178 |
| COc1ccc(Cl)cc1NC(=S)NCc1ccc(S(N)(=O)=O)cc1 | 0.19 |
| Cc1ccc(-c2ccc(CCC(=O)O)n2CC2CCCO2)cc1 (stereo not drawn) | -0.326 |
| CC(=O)OC(C(=O)NCc1ccc(F)cc1)c1ccccn1 (stereo not drawn) | 0.383 |
| C=CCn1c(SCc2ccc(C#N)cc2)nnc1-c1cccc(Cl)c1 | 0.08 |
| Cc1ccc2c(c1C)NC(C)CC2C (stereo not drawn) | 0.329 |
| COc1ccc(CCN2C(=O)C3C4C=CC(C4)C3C2=O)cc1OC (stereo not drawn) | 0.0364 |
| COc1ccc(CC(=O)NC(c2ccccc2)c2ccccc2)cc1S(=O)(=O)N1CCOCC1 | -0.307 |
| CN(C)c1nc2n(c(=O)n1)C(C#N)CS2 (stereo not drawn) | 1.73 |
| Cc1ccc(Nc2c([N+](=O)[O-])c(=O)n(C)c3ccccc23)cc1C | -0.846 |
| Clc1cccc(Oc2ncc(CN3CCOCC3)s2)c1 | -0.0832 |
| O=C(NCCCn1ccnc1)/C(=C\c1cccnc1)NC(=O)c1ccccc1Br | -0.132 |
| CC(C)CNC(=O)COC(=O)c1c2c(nc3ccccc13)/C(=C/c1cccs1)CC2 | -0.0542 |
| COc1ccc(/C=N/NC(=O)CN(Cc2ccccc2)S(=O)(=O)c2ccc3c(c2)OCCO3)cc1 | -0.12 |
| CCCSc1nc(=O)n2cc(C)ccc2n1 | 0.0306 |
| COc1ccc(C(=O)Nc2ccc(S(=O)(=O)Nc3nccnc3OC)cc2)cc1 | 0.0667 |
| Cc1nc2ccccn2c1C(=O)NCCCN1CCOCC1 | 0.145 |
| COc1ccc(CC(=O)Nc2cc(C)ccn2)cc1 | 0.301 |

| SMILES | z-score |
| --- | --- |
| Cc1nn(Cc2ccc(Cl)cc2)c(C)c1NC(=O)c1cc(-c2ccc3c(c2)OCO3)on1 | -0.856 |
| O=c1c2c(-c3cccs3)csc2ncn1-c1ccc(Br)cc1 | -0.297 |
| O=C(CCCC(=O)NC1CCCC1)NC1CCCC1 | -0.0851 |
| CC1(C)Cc2c(c(N3CCOCC3)nc3sc4c(N5CCOCC5)nnnc4c23)CS1 | 0.0342 |
| Cc1oc2c(c1C(=O)NCCO)CCCC2 | -0.0774 |
| O=C(NCCc1c[nH]c2ccccc12)C1CCC(Cn2c(=S)[nH]c3ccccc3c2=O)CC1 (stereo not drawn) | -0.106 |
| Cc1cccc(Cc2cnc(NC(=O)CN3C(=O)/C(=C/c4ccccc4)SC3=S)s2)c1 | -0.269 |
| O=C(N/N=C/c1c(Nc2cccc(C(F)(F)F)c2)nc2ccccn2c1=O)c1ccccc1[N+](=O)[O-] | -0.178 |
| Cc1nn(Cc2ccc(F)cc2)c(C)c1NC(=O)c1cnn2c1NC(c1ccccc1)CC2C(F)(F)F (stereo not drawn) | -1.24 |
| COC(=O)c1c(NC(=O)C2CCCO2)sc2c1CCC2 (stereo not drawn) | -0.297 |
| O=C(CSc1n[nH]c(-c2cccnc2)n1)Nc1ccccc1 | -0.272 |
| O=P(CCC(F)(F)F)(CCC(F)(F)F)CCC(F)(F)F | 0.101 |
| CCc1cccc(CC)c1NC(=O)COC(=O)c1ccc(F)c(S(=O)(=O)N(CC)CC)c1 | -0.307 |
| COc1ccc(NC(=O)Nc2ccc3nsnc3c2)cc1 | -0.43 |
| Cn1cccc1C(=S)N=P(C1CCCCC1)(N1CCOCC1)N1CCOCC1 | 0.184 |
| CCc1ccc(OCC(=O)OC2CCS(=O)(=O)C2)cc1 (stereo not drawn) | -0.358 |
| CC(=O)N1CCN(C(=O)c2ccc(-n3c(C)ccc3C)cc2)CC1 | -0.0344 |
| CCc1ccc(OCCCC(=O)O)c(Br)c1 | -0.107 |
| O=C(Nc1nc(-c2ccccc2)cs1)c1cccs1 | -0.61 |
| CCOC(=O)c1ccc(NC(=O)COC)cc1 | -0.598 |
| CCOC(=O)N1CCC(NC(=O)CN(C)S(=O)(=O)c2cc3c(cc2Cl)NC(=O)CO3)CC1 | -0.235 |
| CCn1cc([N+](=O)[O-])c(C(=O)N2N=C(c3ccc4ccccc4c3)CC2c2ccccc2O)n1 (stereo not drawn) | -0.147 |
| Cn1c(SCC(=O)N2CCCc3ccccc32)nnc1-c1c[nH]c2ccccc12 | 1.79 |

| SMILES | z-score |
| --- | --- |
| Cc1cccc(CC(=O)N2CCN=C2SCc2ccc([N+](=O)[O-])cc2)c1 | -0.128 |
| CC(C(=O)N(C)C)N(C#N)c1nc(N(C)C)nc(N(C)C)n1 (stereo not drawn) | -0.636 |
| C=CC(C)N1C(=O)S/C(=C\c2ccc(N3CCOCC3)cc2C)C1=O (stereo not drawn) | -0.201 |
| Cc1cc2c(c(=O)n1Cc1ccco1)C(c1cccnc1)C(C#N)=C(N)O2 (stereo not drawn) | -0.157 |
| CCOC(=O)c1cccc(NC(=O)COc2ccc([N+](=O)[O-])cc2)c1 | -0.726 |
| Cc1nn(-c2ccc(F)cc2)c2sc(C(=O)O)cc12 | -0.216 |
| COCCNC(=O)c1c(N)n(/N=C/c2cccs2)c2nc3ccccc3nc12 | -0.00344 |
| COc1ccccc1NC(=O)c1ccc(NS(=O)(=O)c2ccc(F)c(Cl)c2)cc1 | -0.388 |
| Cc1ccc(Nc2ccc(C(=O)O)cc2N)cc1 | -0.183 |
| Cc1cnc(NC(=O)Cc2c[nH]c3ccccc23)s1 | -0.194 |
| COc1ccc(-c2noc(C)c2-c2ccc3ccccc3n2)c(O)c1 | -0.699 |
| COc1cc(-c2ncc3ccccn23)cc(OC)c1OC | -0.125 |
| CCOC(=O)c1c(NC(C)=O)sc2c(OC)c(Br)ccc12 | -0.0923 |
| NS(=O)(=O)c1ccc(CNC(=O)/C=C/c2ccc(Cl)c(Cl)c2)cc1 | -0.113 |
| COc1ccc(OCCNc2cc(N3CCOCC3)ccc2[N+](=O)[O-])cc1 | -0.279 |
| CCc1ccc(C(C)NC(=O)c2ncn[nH]2)cc1 (stereo not drawn) | 0.153 |
| Clc1cccc(-c2cc3nc4c(c(N5CCNCC5)n3n2)CCCC4)c1 | 2.71 |
| COc1cc(C(=O)NCC(=O)n2nc(C)cc2C)cc(OC)c1OC | 0.256 |
| Cc1cc(C)n2cc(CSc3ncccc3C(=O)O)nc2n1 | 0.09 |
| Cc1ccc(OCc2nc(-c3ccccn3)no2)cc1 | 0.0238 |
| CC(C)Oc1ccc(C(=O)Nc2ccc(N3CCCC3)cc2)cc1 | -0.126 |
